These results are taken from the supplement of paper PMC11417369.

± gives the standard deviation of the averaged measurements. This is one part of the list.

For this experiment, the system named is PfAP2-LT AP2 domain (GST-tagged). Nature of the experiment: gcPBM binding intensity (ln(normalized median fluorescence intensity)); higher = stronger DNA binding. The gist of the method:
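DNA-binding domains from P. falciparum, fused to GST and produced in E. coli, were put on an Agilent 4 × 180k double-stranded probe array for 1 h in 1× PBS holding 1% milk, 0.2 mg/ml BSA, 0.5% salmon testes DNA and 0.03% Triton X-100. Probes were primer-extended, 36 bp long and drawn from intergenic genomic regions, with negative controls included. After Alexa488 anti-GST antibody detection and a 488 nm scan, binding intensity was set as the highest Masliner-normalised natural-log median intensity across replicate spots of either probe orientation.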
Take “TTGAAGTTTGATTGTAGTACGAATTGGTAGTTTTTT [XGTACX_site6854]”: the “gcPBM binding intensity (ln)” value was 8.78 ± 0.32. The value for “CAAATACATGGACACACACACATATACAGATATATA [CACACA_site5854]” was 9.85 ± 0.48. Turning to “GTGAATATTAAAAAATGTACACAATTATATGTATAT [XGTACX_site4834]”, the “gcPBM binding intensity (ln)” value stood at 8.81 ± 0.42. The value for “AGAAAAGAGAGAAAAACATGCACATGATATTATAAA [TGCATGCA_site120]” was 8.76 ± 0.61. The value for “TTCTTTTAATTACGAGTGCATACCATATGACATTAT [GTGCAC_site9819]” was 8.81 ± 0.48; that for “ATAAACATCTAGTGCTGTACACAATTTGATTTTTTT [XGTACX_site3110]” was 8.78 ± 0.36. The value for “GATTATATATACAAAAGTACATTATAAAAATTTCAT [XGTACX_site4223]” was 8.55 ± 0.55; that for “CCCTTAAAATATAAATGTACAAAATTATTTGTATGT [XGTACX_site6164]” was 8.78 ± 0.33. For the sequence “TGAGTATATATAAATACACACCAAATGTTAATATAT [CACACA_site5022]”, the “gcPBM binding intensity (ln)” value worked out at 8.95 ± 0.32. The value for “AGGTTAATCGAAATTGCATGTGACGAAAAATCAAAA [TGCATGCA_site666]” was 8.7 ± 0.54; that for “ACGTATGTATATTACACACATACATATTATTCACTA [CACACA_site204]” was 9.12 ± 0.3. The value for “TATTTATAACATTGTACACACAAAGAAATAATATTA [CACACA_site7422]” was 8.81 ± 0.45; that for “ATAATATTTTATATAGTGCATTTGCTCATTATATAT [GTGCAC_site9528]” was 8.85 ± 0.36. The value for “ATGATAAACATGGATACACACATATATATTACATAT [CACACA_site1576]” was 9.21 ± 0.39; that for “CATATATAACATATAACACACATACTTAGTATTACA [CACACA_site5674]” was 8.98 ± 0.41; that for “ACATATATATACTATCGATTAATAAATTTGTTTTTT [CACACA_negctrl_site881]” was 8.71 ± 0.45. In the case of “AGCACAGACTAATAAACACACACATATATATATATA [CACACA_site8021]”, the “gcPBM binding intensity (ln)” value was determined as 10.1 ± 0.18. The value for “ATATATATATATATATGTACATATTTATTTATTTAT [XGTACX_site5161]” was 9.6 ± 0.38; that for “CTCATTCTTTTTTGATGTACTTTTTTTTTTTAAGTT [XGTACX_site2875]” was 8.57 ± 0.43. In the case of “TATCTTATATTTACACGTACGTAGAATTTATAAGTT [XGTACX_site3460]”, the “gcPBM binding intensity (ln)” value worked out at 8.67 ± 0.41. Regarding “TTTTATTAATATTATTTATCTTCTCAAAAGATATAT [XGTACX_negctrl_site202]”, the “gcPBM binding intensity (ln)” value worked out at 8.3 ± 0.45. The value for “CACACGTATAAATATACACACTAAAATACACGCACA [CACACA_site7876]” was 9.38 ± 0.4; that for “AAAAGAGAAACATTTACACACAAATATAGATATATG [CACACA_site1027]” was 9.08 ± 0.44; that for “TTTTATGGAAAGTGTTGTACATATTTTTGTATATGT [XGTACX_site7356]” was 8.79 ± 0.38. The value for “TTGTATAATTTAACAAGTACAAAATAAATTTGTATA [XGTACX_site5505]” was 8.53 ± 0.47. The value for “TTCAATTAAAAAATATGTACGCATAAATTGATATAT [XGTACX_site4289]” was 8.63 ± 0.34; that for “ATAGTATACGGACACACACACACACCGATATATATA [CACACA_site5032]” was 10.3 ± 0.38. “CTTTTTTTAGTTAGGTGTACAATTTGTTATTATTAG [XGTACX_site1507]”: the “gcPBM binding intensity (ln)” value came out at 8.78 ± 0.52. In the case of “TATAACAGGAATTATATATATATATATATATATTAT [CACACA_negctrl_site911]”, the “gcPBM binding intensity (ln)” value was determined as 9.21 ± 0.28. Turning to “TTTTTTTTTTTTTTTTGTACATATTTCTTATAAGTG [XGTACX_site6459]”, the “gcPBM binding intensity (ln)” value turned out to be 8.44 ± 0.45. The value for “TTTAATATGTATTTTTTTTTTTTTTTTTTTTTTTTT [XGTACX_negctrl_site440]” was 8.55 ± 0.13. The value for “TTTTATATCTAGTTTATATTTCTTAAATAAATAAAT [GTGCAC_negctrl_site245]” was 8.06 ± 0.61; that for “CAAATTAAATATTATGCATGTACCAAACATCCTACC [TGCATGCA_site35]” was 8.84 ± 0.43; that for “AACATATAAATGATATGTACACACATTTATATATAT [XGTACX_site7364]” was 9.12 ± 0.42. The value for “TAATACAAAAAGAAAAGTACATGTTAATTATTATTT [XGTACX_site2196]” was 8.56 ± 0.57. On to “GGAAGAATATATAGGACACACATACAATAATAAATA [CACACA_site6124]”, for which the “gcPBM binding intensity (ln)” value turned out to be 9.21 ± 0.54.

Turning to “TTTTTTTTTTTTTTTTTTTTTTGTGAAACTAAGTAA [CACACA_negctrl_site273]”, the “gcPBM binding intensity (ln)” value was 8.16 ± 0.33.

In the case of “TTTTTTTTTTTTTTTTTGCAATATATTTTAAAAAAG [CACACA_negctrl_site25]”, the “gcPBM binding intensity (ln)” value is 8.14 ± 0.33. The value for “AACTTCTTTTTTATAACACACAAAATATAAATACAA [CACACA_site4313]” was 8.56 ± 0.4; that for “ACCTGAAGAGTCAAACGTACAAATATTATAAAATGA [XGTACX_site3188]” was 8.77 ± 0.59; that for “TTAATACATTAAATATGTACTTATATATCTCAACTA [XGTACX_site3997]” was 8.69 ± 0.5. The value for “GTTATATTTTTTTTTTGTACATAATATTGTATTGAC [XGTACX_site6338]” was 9.05 ± 0.4; that for “AGTAGCATATTCTATTGTACATATATATATATATAT [XGTACX_site2980]” was 9.46 ± 0.18. The value for “ATTAAAAACGGGTGTACACATATATAAATATATATA [CACACA_site4539]” was 9.04 ± 0.53.
